Out of some 350,000 compounds screened, about 9,900 (2.8%) were called active. The inconclusive results got no clear call from the source; some entries with a clear call stand among them for comparison. Calls follow the shape of the dose curve; as a rule, active = well fitted activation curve with a large enough effect; inconclusive = small, poorly fitted or top-dose-only effect; inactive = no such curve, though single readings can be large or run the other way. No potency is given beside an inconclusive call; the fits are too rough.
Assay: A quantitative high throughput screen for small molecules that induce DNA re-replication in MCF 10a normal breast cells. Also: nearly all actives have a fitted effect of over 50% in size. As to activity, positive = re-replication: % of control where 0% means no effect.
Details: MCF 10A DNA re-replication, Hoechst nuclear intensity, 48 h; activity, positive = re-replication: at 46.1 µM (top of the series)
Potency is read from the fitted curve at half-maximal effect; tags tell the direction and shape of the fitted curve.

Row | SMILES | Potency | activity, positive = re-replication
1 | CCCC1=C(C(=O)OCC)C(c2ccc(OC)c(CSc3ccccn3)c2)C(C#N)=C(N)O1 (stereo unspecified) | inconclusive [activator, single point] | 
2 | C/C(=N\N=C(N)N)c1ccc(Cl)cc1Cl | inconclusive [activator, single point] | 
3 | O=C(Nc1cc(Cl)ccc1N1CCOCC1)C1CC1 |  | inactive: -1.7%
4 | O=C(NCc1ccccn1)c1cccc(S(=O)(=O)N2CCCCC2)c1 |  | inactive: 1.39%
5 | N#Cc1cc2c(nc1SCC(=O)Nc1nccs1)CCCCC2 | active: 3.66 µM | 
6 | CC1CCC/C(=N\NC(=S)NCc2ccccc2)C1 (stereo unspecified) | inconclusive [activator, partial curve, poor fit] | 
7 | Cc1onc(-c2ccccc2Cl)c1C(=O)N1CCCCC1 |  | inactive: -1.71%
8 | CNc1nc(NCCOC23CC4CC(CC(C4)C2)C3)nc(OCC(F)(F)F)n1 | inconclusive [activator, single point] | 
9 | COc1ccc(-c2c(C)[nH]n3c(=O)c(Cc4ccccc4)c(C)nc23)cc1OC | inconclusive [activator, single point] | 
10 | Cc1cccc(OCC(=O)Nc2ccc3c(c2)nc(CN2CCCCC2)n3C)c1 | inconclusive [activator, single point] | 
11 | COc1cccc([C@@H]2Oc3ccc(Br)cc3C(=O)[C@H]2OC(=O)NC2CCCC2)c1 | inconclusive [activator, single point] | 
12 | O=C(CCl)N1N=C(c2cccs2)CC1c1ccco1 (stereo unspecified) | active: 18.4 µM | 
13 | COC(=O)c1ccc2c(=O)n(Cc3ccc(C(=O)NC(C)C)cc3)c(=S)[nH]c2c1 | inconclusive [activator, partial curve] | 
14 | COc1ccc(CCn2c(=N)c(C(=O)NC3CCCC3)cc3c(=O)n4ccccc4nc32)cc1 | active: 20.6 µM | 
15 | Cc1cccc(N2CCN(C(=O)c3cccn4c(=O)c5c(C)c(C)sc5nc34)CC2)c1C | inconclusive [activator, partial curve, poor fit] | 
16 | COc1ccc(CN(C)C(=O)/C=C/c2ccc(S(=O)(=O)N3CCCCCC3)cc2)cc1 | inconclusive [activator, partial curve, poor fit] | 
17 | COc1ccc(-n2nnnc2-c2cnc(N3CCCC3)nc2C(F)(F)F)cc1 | inconclusive [activator, partial curve, poor fit] | 
18 | Clc1ccc(CN2CCSCC2)c(Cl)c1 | inconclusive [activator, single point] | 
19 | O=C(NCCOc1ccccc1F)c1cc([N+](=O)[O-])ccc1N1CCOCC1 | inconclusive [activator, single point] | 
20 | Oc1ccc(N2CCN(C(c3cccs3)c3nnnn3CCc3ccccc3)CC2)cc1 (stereo unspecified) | inconclusive [activator, partial curve] | 
21 | COCCCNC(=O)CN1C(=O)/C(=C/c2ccccc2)Sc2ccccc21 |  | inactive: -2.03%
22 | Cc1cc(C)c(S(=O)(=O)n2ccc3ccccc32)c(C)c1 | inconclusive [activator, partial curve, poor fit] | 

Row | SMILES | Potency | activity, positive = re-replication
23 | CC1(C)C(=O)Nc2ccccc2N1C(=O)COC(=O)/C=C/c1ccc(OC(F)F)cc1 | inconclusive [activator, partial curve, poor fit] | 
24 | C=CCN1C2CCCC1CC(NC(=S)Nc1ccc(Cl)cc1)C2 (stereo unspecified) | inconclusive [activator, single point] | 
25 | C/C(=N/NC(=O)c1cccs1)c1ccc(NC(=O)COc2ccc(Cl)cc2Cl)cc1 | active: 6.51 µM | 
26 | COc1ccc(C(=O)c2c3ccc([N+](=O)[O-])cc3[n+]([O-])n2CCCN)cc1 | inconclusive [activator, single point] | 
27 | Cc1cccc(NC(=O)CC(C)(C)C)c1 | inconclusive [activator, full curve, poor fit] | 
28 | CN1CCN(c2cc(-c3ccccc3)nc3cc(-c4ccc(F)cc4)nn23)CC1 | inconclusive [activator, single point] | 
29 | CCc1ccc(NCc2ccc(OC)c(Cn3ccnc3)c2)cc1 |  | inactive: -7.55%
30 | CCn1c(=O)c(C(=O)Nc2nc3ccccc3[nH]2)c(O)c2ccccc21 | active: 9.2 µM | 
31 | Cc1cc(C)n(CCC(=O)N/N=C/c2c(O)ccc3ccccc23)n1 | inconclusive [activator, single point] | 
32 | COc1cccc(NC(=O)[C@H](Cc2c[nH]c3ccccc23)NC(=O)[C@@H]2Cc3ccccc3CN2)c1 | active: 18.4 µM | 
33 | Cc1ccccc1OCCCN1CCCC1 |  | inactive: 10.5%
34 | COc1ccc(-n2cc(-c3ccccc3)c3c(=S)nc[nH]c32)cc1 | inconclusive [activator, single point] | 
35 | O=C(NC(NC(=S)Nc1ccccc1Cl)C(Cl)(Cl)Cl)c1cccc(Cl)c1 (stereo unspecified) | inconclusive [activator, single point] | 
36 | COC(=O)c1ccccc1NC(=O)CC(=O)Nc1ccccc1C(=O)OC |  | inactive: -2.67%
37 | CN1CCN(C(c2ccc(C(F)(F)F)cc2)c2ccc3cccnc3c2O)CC1 (stereo unspecified) | inconclusive [activator, partial curve, poor fit] | 
38 | Cc1cccc(N2CCN(CC(=O)Nc3nccs3)CC2)c1C | inconclusive [activator, full curve, poor fit] | 
39 | C[C@@H](C(=O)Nc1nc(-c2ccccn2)cs1)N1C(=O)C2CCCCC2C1=O (stereo partly specified) | inconclusive [activator, partial curve, poor fit] | 
40 | CCOc1ccc(S(=O)(=O)Nc2cc(Cl)ccc2O)cc1 | inconclusive [activator, single point] | 
41 | O=C(c1c(F)cccc1F)N(Cc1ccccc1)Cc1ccccc1 | inconclusive [activator, single point] | 
42 | COc1ccc(C(=O)/C=C/c2ccccc2)c(OC)c1 | inconclusive [activator, single point] | 
43 | C=CCNc1nc(Nc2ccc([N+](=O)[O-])cc2)nc(OC)n1 |  | inactive: -1.69%
44 | CN1C(=O)C(O)(CC(=O)/C=C/c2ccco2)c2cc(Br)ccc21 (stereo unspecified) | inconclusive [activator, single point] | 

Row | SMILES | Potency | activity, positive = re-replication
45 | O=C(Nc1nc(-c2ccco2)c(-c2ccco2)s1)C1CCC1 | inconclusive [activator, single point] | 
46 | COc1cc2c(-c3ccc4cc[nH]c4c3)c(-c3ccc(C#N)cc3)oc(=O)c2cc1OC | inconclusive [activator, partial curve, poor fit] | 
47 | CCOc1ccc(C2C(C#N)=C(C)NC3=C2C(=O)c2ccccc23)cc1 (stereo unspecified) | inconclusive [activator, single point] | 
48 | CC1(C)CC(NC(=O)c2ccc(Cl)c(S(=O)(=O)N(Cc3ccccc3)c3ccccc3)c2)CC(C)(C)N1 | inconclusive [activator, single point] | 
49 | COc1ccc(C2CC(=O)C(C=NCCN3CCN(C(C)=O)CC3)=C(O)C2)cc1 (stereo unspecified) | inconclusive [activator, single point] | 
50 | O=C(/C=C/c1ccncc1)c1ccc2c(c1)OCCO2 | inconclusive [activator, single point] | 
51 | O=C(Nc1nc2ccccc2[nH]1)C1CCC1 | inconclusive [activator, single point] | 
52 | Cc1cccc(OCC(=O)N2CCN(c3nnc(-c4ccccc4)c4ccccc34)CC2)c1 |  | inactive: 3.28%
53 | COc1ccc(-c2sc3ccc(OC)cc3c2-c2ccc(OC)nc2)cc1 | inconclusive [activator, full curve] | 
54 | O=C(Nc1cccnc1)c1cccc(-c2cc3ccccc3oc2=O)c1 | inconclusive [activator, single point] | 
55 | CCc1cc(=O)oc2c(C)c(OCC(=O)N3CCCc4ccccc43)ccc12 |  | inactive: -12.9%
56 | CCOc1ccc(NC(=O)c2cc3ccccc3cc2O)cc1 | active: 16.4 µM | 
57 | CN1OC[C@@H]2CN(Cc3ccccc3)[C@H](c3cccc(Oc4ccccc4)c3)C[C@@H]21 | inconclusive [activator, single point] | 
58 | Cc1cc(=O)[nH]c(Cc2ccc(OC(C)C)cc2)n1 | inconclusive [activator, single point] | 
59 | O=C(CCSc1ccccc1)NCCSc1ccccn1 | inconclusive [activator, partial curve, poor fit] | 
60 | Fc1ccc2[nH]c3c(N4CCN(c5ccccc5)CC4)ncnc3c2c1 | inconclusive [activator, single point] | 
61 | O=C(COc1cccc(C(F)(F)F)c1)Nc1cccc(S(=O)(=O)NC2=NCCCCC2)c1 | inconclusive [activator, partial curve, poor fit] | 
62 | O=C(NCCN1CCOCC1)Nc1ccc(Cl)cc1Cl | inconclusive [activator, partial curve, poor fit] | 
63 | O=C(NCC(=O)N1CCCC(C(F)(F)F)C1)c1ccccc1Br (stereo unspecified) |  | inactive: 2.27%
64 | CCOc1ccc(NC(=O)CNC(=O)c2nn(-c3ccc(OC)c(OC)c3)c(=O)c3ccccc23)cc1 |  | inactive: -5.37%
65 | COc1ccccc1N(CC(=O)N/N=C/c1c(O)ccc2ccccc12)S(C)(=O)=O | inconclusive [activator, single point] | 
66 | CCOc1ccc(-c2nc(N)ncc2Oc2ccc(OC)cc2)c(O)c1 | inconclusive [activator, single point] | 
